# The other results are listed elsewhere or left out.
# System: HSkMC (human skeletal muscle cells)
# Assay: cytotoxicity call (relative viability < 0.9)
# Conditions: 10 µM
row,Compound,cytotoxicity call
1,CCCCCCCCCCCCCCCCOc1nc2ccc(C)cc2c(=O)o1,inactive
2,C[C@H](CO)N1C[C@H](C)[C@H](CN(C)C(=O)CN2CCOCC2)Oc2ncc(-c3cncnc3)cc2C1=O,inactive
3,C[C@H]1CN([C@@H](C)CO)S(=O)(=O)c2ccc(C#CC3CC3)cc2O[C@@H]1CN(C)C(=O)Cc1ccncc1,inactive
4,C[C@H](CO)N1C[C@H](C)[C@H](CN(C)Cc2ccc(C(=O)O)cc2)Oc2c(NC(=O)c3ccncc3)cccc2C1=O,inactive
5,C[C@H]1CN([C@@H](C)CO)C(=O)c2cccc(NC(=O)C3CCOCC3)c2O[C@H]1CN(C)S(=O)(=O)c1ccc(F)cc1,inactive
6,Cc1ccc(S(=O)(=O)Nc2ccc3c(c2)C(=O)N([C@H](C)CO)C[C@H](C)[C@@H](CN(C)Cc2ccc(Cl)c(Cl)c2)O3)cc1,inactive
7,O=C(C[C@@H]1CC[C@@H]2[C@H](COC[C@@H](O)CN2C(=O)Nc2ccc(F)cc2)O1)NCCCN1CCOCC1,inactive
8,C[C@@H]1CN([C@@H](C)CO)C(=O)c2cc(NS(C)(=O)=O)ccc2O[C@@H](C)CCCCO[C@@H]1CN(C)S(=O)(=O)c1cccs1,inactive
9,C[C@@H]1CN([C@H](C)CO)C(=O)Cc2cc(NC(=O)c3ccncc3)ccc2O[C@H]1CN(C)C(=O)NC1CCCCC1,inactive
10,CCCCC[C@@H](O)C[C@@H](O)CC(=O)O[C@@H](CCCCC)C[C@@H](O)CC(=O)OC[C@@H](O)[C@@H](O)[C@@H](O)[C@@H](O)CO,inactive
11,COc1ccc(S(=O)(=O)Nc2ccc3c(c2)C(=O)N([C@H](C)CO)C[C@@H](C)[C@@H](CN(C)C(=O)Nc2c(C)noc2C)O3)cc1,inactive
